In all, about 310,000 compounds went through this assay and about 14,000 (4.5%) showed an effect of 50% or more. The effect is printed as a negative number. The list shows a part of the results.
target: human ether-à-go-go-related gene (hERG) potassium channel (human, UniProt Q12809); assay: primary screen, population patch clamp on CHO cells stably expressing hERG
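Note: peak tail current of the secondary pulse compared with the same well before compound.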

human ether-à-go-go-related gene (hERG) potassium channel, sequence (Q12809 whole entry, looked up): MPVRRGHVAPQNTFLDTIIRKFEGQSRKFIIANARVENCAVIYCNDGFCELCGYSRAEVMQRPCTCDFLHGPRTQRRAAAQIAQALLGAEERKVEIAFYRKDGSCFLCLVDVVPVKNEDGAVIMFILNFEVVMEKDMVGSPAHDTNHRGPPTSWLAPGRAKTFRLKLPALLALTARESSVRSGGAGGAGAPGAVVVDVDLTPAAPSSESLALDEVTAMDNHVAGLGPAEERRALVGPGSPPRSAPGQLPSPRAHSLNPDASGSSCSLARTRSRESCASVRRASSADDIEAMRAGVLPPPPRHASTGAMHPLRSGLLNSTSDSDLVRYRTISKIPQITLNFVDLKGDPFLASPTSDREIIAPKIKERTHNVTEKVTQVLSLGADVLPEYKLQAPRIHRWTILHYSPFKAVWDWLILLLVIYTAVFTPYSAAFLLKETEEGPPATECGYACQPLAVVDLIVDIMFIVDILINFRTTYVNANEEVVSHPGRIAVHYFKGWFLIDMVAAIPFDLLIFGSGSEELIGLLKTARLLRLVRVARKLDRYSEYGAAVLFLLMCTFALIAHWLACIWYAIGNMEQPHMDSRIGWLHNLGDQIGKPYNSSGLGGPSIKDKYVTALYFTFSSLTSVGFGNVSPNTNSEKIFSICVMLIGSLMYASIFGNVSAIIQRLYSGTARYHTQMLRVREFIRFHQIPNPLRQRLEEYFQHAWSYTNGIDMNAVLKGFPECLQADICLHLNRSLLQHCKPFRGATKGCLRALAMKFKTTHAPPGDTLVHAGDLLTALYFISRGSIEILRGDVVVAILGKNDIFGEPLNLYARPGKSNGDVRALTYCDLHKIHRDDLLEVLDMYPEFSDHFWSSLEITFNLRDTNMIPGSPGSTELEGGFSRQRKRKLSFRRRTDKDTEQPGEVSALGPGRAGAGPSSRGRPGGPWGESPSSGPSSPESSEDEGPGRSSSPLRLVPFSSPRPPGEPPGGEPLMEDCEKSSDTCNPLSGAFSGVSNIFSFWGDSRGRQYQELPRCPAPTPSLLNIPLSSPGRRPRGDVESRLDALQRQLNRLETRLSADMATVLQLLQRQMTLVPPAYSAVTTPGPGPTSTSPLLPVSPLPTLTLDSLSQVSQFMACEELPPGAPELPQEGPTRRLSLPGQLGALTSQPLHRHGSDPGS

In order of falling “hERG current change (%, negative = inhibition) at 10uM” value:
1. O=C(NCc1ccco1)c1cc(-c2ccc(Cl)cc2)on1  37.3%
2. COc1cc(OC)cc(C(=O)N[C@@H](CCSC)c2nc3ccccc3[nH]2)c1  30.7%
3. O=C(OCC(=O)c1ccc[nH]1)c1ccc2ccccc2n1  24.2%
4. COCCCNC(=S)NNC(=O)c1cccnc1  22.3%
5. C[C@H]1CNC(=O)C(=O)N1C[C@H](Cc1ccc(O)cc1)NC(=O)CC12CC3CC(CC(C3)C1)C2  18.8%
6. Cc1nn(C)c(C(=O)NNC(=S)Nc2ccc(Cl)cc2)c1[N+](=O)[O-]  18.7%
7. CC1(C)CC2(CCO1)N1CC3(C)CN2CC(C)(C1)C3O (stereo not shown)  17.9%
8. CCn1nc(C)cc1C(=O)Sc1ccc(Cl)cc1Cl  16.2%
9. CCc1nnc(NC(=O)C2CCCN2C(=O)Nc2ccccc2)s1 (stereo not shown)  15.8%
10. O=C(O)C1CCC(=O)N(C2CC2)C1c1ccccc1 (stereo not shown)  12%
11. Cc1ccc(SCC(=O)NCc2ccccc2C)cc1  11.8%
12. O=C(CCNC(=O)c1ccccc1)N=Nc1c(O)[nH]c2ccccc12  10.7%
13. S=C(NCc1ccccc1)N1CCN(c2cccc(Cl)c2)CC1  9.86%
14. C=CCS(=O)(=O)c1nc2ccccc2s1  9.22%
15. O=C1CC2(CCCCCC2)Oc2ccc(Cl)cc21  9.01%
16. NS(=O)(=O)c1cccc(NC(=O)CSc2nnc(C3CC3)n2C2CC2)c1  8.95%
17. Cc1ccc(C(=O)NCCc2cccs2)cc1  7.84%
18. c1ccc(C2Nc3ccccc3Oc3ccccc32)cc1 (stereo not shown)  7.7%
19. Cc1ccc2c(c1)/C(=C/c1ccco1)C(=O)N2  6.8%
20. O=C(Nc1ccc2c(c1)OCCO2)C1CCCN(S(=O)(=O)c2cccnc2)C1 (stereo not shown)  6%
21. COc1ccc(S(=O)(=O)Nc2cc3c4c(c2)CCN4C(=O)CC3)cc1  5.85%
22. CCOc1cc(-c2nc(-c3ccccc3)c(-c3cc([N+](=O)[O-])ccc3C)[nH]2)ccc1O  3.59%
23. COC(=O)c1cc(=O)nc2sc(-c3cccs3)nn12  3.54%
24. Cc1ccccc1NC(NC(=O)OCCn1c([N+](=O)[O-])cnc1C)C(Cl)(Cl)Cl (stereo not shown)  2.42%
25. CCOC(=O)Cn1cnc2sc3c(c2c1=O)CCC3  1.75%
26. CCOC(=O)C(=CN(CCc1ccccc1)CC(=O)OC)C(=O)OCC  0.467%
27. CCOC(=O)N/N=C/C(Cl)=C/c1ccccc1  0.407%
28. O=C(CCc1nnc2ccc(NCc3ccc(F)cc3)nn12)NC1CCCC1  -0.461%
29. CC(C)NC(=O)NC(=O)CSc1ccccc1F  -1.52%
30. O=C(c1cccc2ccccc12)C1CCCN(C(=O)C2CCOCC2)C1 (stereo not shown)  -1.78%
31. CN(C)c1ccc([N+](=O)[O-])cc1C(=O)O  -2.83%
32. O=C1CC(c2ccccc2)c2c(O)cc(O)cc2O1 (stereo not shown)  -3.12%
33. CNC(=O)COC(=O)c1ccc2c(c1)S(=O)(=O)c1ccccc1C2=O  -3.19%
34. CCS(=O)(=O)N1CCN(c2ccc(C(=O)N3CCOCC3)cc2[N+](=O)[O-])CC1  -4.74%
35. Nc1nnc(CSCc2ccc(Cl)cc2)s1  -6.05%
36. COc1ccc(N(C(=O)c2ccco2)C(C(=O)NC2CCCC2)c2ccccc2)cc1 (stereo not shown)  -7.75%
37. COCCn1c(CN2CCN(c3ccc(OC)cc3)CC2)nc2c1c(=O)n(C)c(=O)n2C  -9.23%
38. O=c1c(-c2ccc(Br)cc2)[n+]([O-])c2ccccc2n1OCc1ccccc1  -10.2%
39. Cc1c(C(=O)N(C)CCOc2ccccc2)oc2c(Cl)cccc12  -10.6%
40. CCN1C(=O)NC(c2cccnc2)C(C(=O)OC)=C1C (stereo not shown)  -11.3%
41. Cc1ccc(Nc2cc(C(=O)NCCCN3CCOCC3)c3ccccc3n2)c(C)c1  -12.8%
42. CCN(CC)S(=O)(=O)c1cccc(S(=O)(=O)c2cccc(S(=O)(=O)N(CC)CC)c2)c1  -13%
43. COc1ccc(S(=O)(=O)N2CCCC2C(=O)Nc2ccc(C(C)=O)cc2)cc1 (stereo not shown)  -13.5%
44. CC[n+]1ccc(C)c2cc(S(=O)C(F)(F)F)ccc21.Cc1ccc(S(=O)(=O)[O-])cc1 (stereo not shown)  -16%
45. COc1ccc(NC(=O)CSc2nnc(-c3cccs3)n2-c2ccccc2)cc1  -18%
46. Cc1noc(C)c1CS(=O)(=O)c1ccc([N+](=O)[O-])cc1  -19.2%
47. c1csc(CNc2nc3ccccc3n2CCN2CCOCC2)c1  -28%
48. CCOC(=O)c1c(C)n(-c2ccccc2)c2ccc(O)c(CN(C)C)c12.Cl  -30.7%
49. CCCCN1C(=O)C2C3C=CC(C2C1=O)C1C2C(=O)N(CCCC)C(=O)C2C31 (stereo not shown)  -33.2%
50. CN(C)CC/C=C1/c2ccccc2Sc2c(O)cc(Cl)cc21  -47.5%
51. O=S(=O)(NCc1ccc(F)cc1)c1cccc(S(=O)(=O)N2CCOCC2)c1  -48.5%
52. O=[N+]([O-])c1ccc(SCCc2cc[nH+]cc2)cc1.[Cl-]  -53.7%
53. O=C(CCOc1ccccc1)Nc1ccnn1C1CCN(Cc2ccc(F)cc2)CC1  -59.1%
54. O=C(NCCS(=O)(=O)N1CCN(c2ccc(F)cc2)CC1)c1ccc(Br)o1  -60.1%
55. Br.Cn1c(=N)n(CC(=O)c2ccc(Cl)c(Cl)c2)c2ccccc21  -64.1%
56. CCCCN1CCCC1CNC(=O)c1cc(C#N)c2ccccc2c1OC (stereo not shown)  -64.3%
57. O=C(c1ccc([N+](=O)[O-])s1)N1CCN(c2ccc(C(F)(F)F)cn2)CC1  -67.5%
58. CCCOc1ccc(C2=CSC3=NCCN23)cc1[N+](=O)[O-]  -73.6%
